The list shows a part of the results.
Columns and labels:
[1] = tested on: HSkMC (human skeletal muscle cells); experiment: cytotoxicity call (relative viability < 0.9); settings: 10 µM
[2] = tested on: HepG2; experiment: cytotoxicity call (relative viability < 0.9); settings: 10 µM
[3] = tested on: S. aureus RN4220; experiment: growth inhibition call (relative growth <= 0.2); settings: 50 µM

SMILES	cytotoxicity call [1]	cytotoxicity call [2]	growth inhibition call [3]
C[C@H](CO)N1C[C@H](C)[C@@H](CN(C)Cc2ccc3c(c2)OCO3)Oc2ccc(NS(C)(=O)=O)cc2CC1=O	inactive	inactive	inactive
CC(=O)OCC(=O)C1(O)CCC2C3CCC4CC(O)CCC4(C)C3C(=O)CC21C (centres undefined)	inactive	inactive	inactive
CC1(N)CCN(c2cccnc2NC(=O)c2nc(-c3ncccc3C(F)(F)F)cnc2N)CC1	inactive	inactive	inactive
C[C@@H]1CCCCO[C@@H](CN(C)C(=O)Nc2cccc3ccccc23)[C@@H](C)CN([C@@H](C)CO)C(=O)c2cc(N(C)C)ccc2O1	inactive	inactive	inactive
O=c1[nH]c(=O)n([C@@H]2C[C@@H](O)[C@@H](CO)O2)cc1F	inactive	inactive	active
Cc1ccc(S(=O)(=O)N(C)C[C@H]2OCCCC[C@H](C)Oc3ccc(NC(=O)Nc4ccc(C(F)(F)F)cc4)cc3C(=O)N([C@H](C)CO)C[C@H]2C)cc1	inactive	inactive	inactive
C[C@@H]1CCCCO[C@@H](CN(C)Cc2ccccc2)[C@H](C)CN([C@@H](C)CO)C(=O)c2cc(NC(=O)CCC(F)(F)F)ccc2O1	inactive	inactive	inactive
CCCN(C)C[C@H]1OCCCC[C@@H](C)Oc2ccc(NC(=O)Nc3ccc(C(F)(F)F)cc3)cc2C(=O)N([C@H](C)CO)C[C@H]1C	inactive	inactive	inactive
Cc1noc(C)c1NC(=O)Nc1cccc2c1O[C@H](CN(C)Cc1ccc(-c3ccccc3)cc1)[C@H](C)CN([C@H](C)CO)C2=O	inactive	inactive	inactive
C[C@H](NC(=O)C[C@H]1C=C[C@@H](NC(=O)CN2CCOCC2)[C@H](CO)O1)c1ccccc1	inactive	inactive	inactive
C[C@@H]1CCCCO[C@H](CN(C)C(=O)CCCN(C)C)[C@@H](C)CN([C@H](C)CO)C(=O)c2cc(NS(C)(=O)=O)ccc2O1	inactive	inactive	inactive
CCCN(C)C[C@H]1OCCCC[C@@H](C)Oc2ccc(NS(=O)(=O)c3ccc(Cl)cc3)cc2C(=O)N([C@H](C)CO)C[C@@H]1C	inactive	inactive	inactive
CCC(CC)c1nc(Nc2ccccc2)c2ccccc2n1	inactive	inactive	active
COCCOC(=O)N1C(=O)[C@@]2(c3cc(C#CCNC(N)=O)ccc31)[C@H](c1ccccc1OCCO)N1[C@H](c3ccccc3)[C@H](c3ccccc3)OC(=O)[C@H]1[C@@H]2C(=O)N1CCCCCCC1	inactive	inactive	inactive
OCCN1CCN(c2ncnc3c2ncn3[C@H]2CN(Cc3cccnc3)C[C@@H](CO)O2)CC1	inactive	inactive	inactive
COc1ccccc1C#Cc1ccc2c(c1)O[C@@H](CN(C)Cc1cncnc1)[C@H](C)CN([C@@H](C)CO)S2(=O)=O	active	inactive	inactive
C[C@H](CO)N1C[C@H](C)[C@H](CN(C)C(=O)C2CCCCC2)OCCCC[C@H](C)Oc2ccc(NS(=O)(=O)c3ccc(Cl)cc3)cc2C1=O	inactive	inactive	inactive
C[C@@H]1CN([C@H](C)CO)C(=O)c2cc(NS(=O)(=O)c3ccc(F)cc3)ccc2O[C@@H]1CN(C)S(=O)(=O)c1cn(C)cn1	inactive	inactive	inactive
C[C@H]1CN([C@@H](C)CO)C(=O)c2cccc(NC(=O)C3CC3)c2O[C@H]1CN(C)Cc1ccc(Oc2ccccc2)cc1	inactive	inactive	inactive
C[C@@H]1CN([C@@H](C)CO)S(=O)(=O)c2ccc(Br)cc2O[C@@H]1CN(C)S(=O)(=O)c1cn(C)cn1	inactive	inactive	inactive
COc1ccc(C[C@H](N)C(=O)N[C@H]2[C@@H](O)[C@@H](n3cnc4c(N(C)C)ncnc43)O[C@@H]2CO)cc1	active	active	active
C[C@@H]1CN([C@@H](C)CO)C(=O)c2cccc(NC(=O)CCCCCC(=O)Nc3ccccc3N)c2O[C@H]1CN(C)C(=O)Nc1cccc2ccccc12	inactive	inactive	inactive
Nc1ncc(O)cn1	inactive	inactive	inactive
C[C@@H]1CN([C@@H](C)CO)C(=O)c2ccccc2-c2ccccc2CO[C@H]1CN(C)Cc1ccccc1C(F)(F)F	inactive	inactive	active
C[C@@H]1CN([C@H](C)CO)C(=O)c2cccc(NS(=O)(=O)c3ccc(F)cc3)c2O[C@@H]1CN(C)S(=O)(=O)c1cccs1	inactive	inactive	inactive
C[C@@H]1CCCCO[C@H](CN(C)C(=O)NC2CCCCC2)[C@H](C)CN([C@H](C)CO)C(=O)c2cc(NS(=O)(=O)c3ccc(Cl)cc3)ccc2O1	inactive	active	inactive
CC(C)NC(=O)Nc1cccc2c1O[C@H](CN(C)S(=O)(=O)c1cccs1)[C@@H](C)CN([C@@H](C)CO)C2=O	inactive	inactive	inactive
CC[C@H]1CN(C(=O)c2cnccn2)N1C	inactive	inactive	inactive

From the antibiotic and cytotoxicity screens of Wong et al. (2023)
